Source: ChEMBL document CHEMBL1201862, “PubChem BioAssay data set” (2004)

What follows are molecules tested on NCI-H322M (assay: NCI-60 cell line screen, 48 h).

| SMILES | GI50 |
| --- | --- |
| CC(=O)O[C@H]1C(=O)N(c2cc3c4ccccc4ccc3c3ccccc23)[C@@H]1c1ccccc1 | inactive: 2.11 µM |
| CC1(C)Oc2ccc3ccc(=O)oc3c2C(O)C1O (configuration not stated) | inactive: 80.9 µM |
| O=C1c2ccccc2C(=O)N1C1(C(=O)NC2(C(=O)O)CCCC2)CCCC1 | inactive: > 100 µM |
| CC(C)c1ccccc1[S+]([O-])c1ccccc1C(C)(C)O (configuration not stated) | inactive: 34.6 µM |
| Cn1c(=O)c2nc(SCCN3CCOCC3)[nH]c2n(C)c1=S | inactive: > 100 µM |
| COc1ccc(C(=O)CC(=O)C(=O)Nc2ccc(C)c(C)c2)cc1 | inactive: > 100 µM |
| CC(C)S(=O)(=O)ON1C(=O)c2ccc(N(C)C)cc2C1=O | inactive: > 52.4 µM |
| C[C@H]1C(=O)c2c(cc(O)c(C3OC(CO)C(O)C(O)C3O)c2O)OC1c1ccc(O)c(O)c1 (some centres not stated) | inactive: > 100 µM |
| CC(C)(C)CNCCO | inactive: > 100 µM |
| COc1cc2c(OC)c3cc(C)oc(=O)c3c(O)c2c(O)c1-c1c(OC)cc2c(OC)c3cc(C)oc(=O)c3c(O)c2c1O | inactive: 18.8 µM |
| O=C1C2=C(SCCS2)C(=O)c2ccccc21 | inactive: 1.77 µM |
| O=C1CN2C(Cl)(Cl)C2(c2ccccc2)c2cc(Cl)ccc2N1CC(F)(F)F (configuration not stated) | inactive: 27.5 µM |
| C/C(=N\n1c(Cc2ccccc2)n[nH]c1=O)c1ccccc1 | inactive: > 100 µM |
| COc1ccc(NC(=S)N/N=C(\C)c2nc3cccnc3[nH]2)cc1 | inactive: 5.93 µM |
| O=C1CCCC2(c3ccccc3)Nc3ccccc3N12 (configuration not stated) | inactive: > 100 µM |
| Cc1cc(/N=C/c2ccc(Cl)cc2)n(-c2ccccc2)n1 | inactive: 46 µM |
| COC1(OC)N=C(N)C2(C#N)C(C)=C3NCN(C)N=C3C12C#N (configuration not stated) | inactive: > 100 µM |
| Cn1c(=O)c2c(nc3n2CC(C(=O)O)N3)n(C)c1=O (configuration not stated) | inactive: > 100 µM |
| Cc1nc2nn[nH]n2c(=O)c1CCO | inactive: > 100 µM |
| CC(/C(=N/NC(=O)C(N)=O)c1c(Cl)ccc(Cl)c1O)C1(O)C(=O)Nc2ccccc21 (configuration not stated) | inactive: 44.1 µM |
| CN(C)c1ccc2oc(=O)c3ccccc3c2c1 | inactive: > 100 µM |
| Clc1ccc(/N=C2\c3ccccc3CN2c2ccc(Cl)cc2)cc1 | inactive: > 100 µM |
| Cc1c2nc3ccccc3sc-2cc(=O)c1C | inactive: > 100 µM |

| SMILES | GI50 |
| --- | --- |
| COc1ccc2c(c1)CCc1c-2n(CCN(C)C)c2ccc(OC)cc12 | inactive: 13 µM |
| O=C(O)c1ccccc1/C=N/N=C1NCCN1 | inactive: > 100 µM |
| CC1CC(N)=Nc2ccccc2N1Cc1ccccc1 (configuration not stated) | inactive: 29 µM |
| O=C1C(O)=C(CCCc2ccc(Oc3ccccc3)cc2)C(=O)c2ccccc21 | inactive: 10.7 µM |
| C=C(NC(=O)C(=C)NC(=O)c1csc(C2=NC3c4csc(n4)C4NC(=O)c5csc(n5)C(C(C)(O)C(C)O)NC(=O)C5CSC(=N5)/C(=C/C)NC(=O)C(C(C)O)NC(=O)c5csc(n5)C3(CC2)NC(=O)C(C)NC(=O)C(=C)NC(=O)C(C)NC(=O)C(C(C)CC)NC2C=Cc3c(C(C)O)cc(nc3C2O)C(=O)OC4C)n1)C(N)=O (configuration not stated) | inactive: 5.69 µM |
| Cc1cn(C2CC(O)C(CO)O2)c(=O)n2nnnc12 (configuration not stated) | inactive: > 100 µM |
| SCc1ccc(CS)s1 | inactive: > 100 µM |
| C=C(C)C1(Sc2ccc(OC)cc2)CC1 | inactive: 73.8 µM |
| [N-]=[N+]=Nc1c(N2CCOCC2)c(Cl)nc2ccccc12 | inactive: 95.9 µM |
| CSc1ccc(C2C(Cl)C(=O)N2NC(=O)c2c(Cl)c(Cl)c(Cl)c(Cl)c2-c2nc3ccccc3[nH]2)cc1 (configuration not stated) | inactive: 30.4 µM |
| NC(CCC(=O)NC(CSCC1C(=O)Nc2ccccc21)C(=O)NCC(=O)O)C(=O)O (configuration not stated) | inactive: 13.2 µM |
| COc1cc2oc(-c3ccc4c(c3)OCO4)c(OC)c(=O)c2c(O)c1OC | inactive: > 50 µM |
| CCCCCCCCCCCCOCC1(COCCCCCCCCCCCC)COC(c2ccc(N)cc2)OC1 | inactive: > 100 µM |
| S=C(N/N=C(/c1ccccc1)c1ccccn1)Nc1ccc(Cl)cc1 | active: 0.0546 µM |
| CN(C)C(=S)/N=c1\ssc(=S)n1Cc1cccs1 | inactive: 4.19 µM |
| Fc1cccc(C2SCc3nc4cc5ccccc5cc4n32)c1 (configuration not stated) | inactive: > 100 µM |
| CC1(C)OCC2(CO1)CSCCCSCC1(COC(C)(C)OC1)CSCCCSC2 | inactive: > 100 µM |
| CCCN(CCCCC(NC(C)=O)C(=O)NCc1ccccc1)C(=O)NCCCl (configuration not stated) | inactive: > 100 µM |
| COc1ccc(OC)c(N2C(=O)/C(=C\c3ccccc3)SC2c2cc(OC)c(OC)c(OC)c2)c1 (configuration not stated) | inactive: > 100 µM |
| C(#CP(c1ccccc1)c1ccccc1)P(C#CP(c1ccccc1)c1ccccc1)c1ccccc1 | inactive: > 100 µM |
| Cc1ccc2nc3c(C(=O)NCCN(C)C)cccc3nc2c1 | inactive: 3.5 µM |
| COc1ccc(/C=C2/C(=O)C(c3ccccc3)N(c3ccccc3)C2=O)cc1OC (configuration not stated) | inactive: > 10 µM |
| Cc1cc(OCc2nnc3n2N=C(c2cc(F)c(Cl)cc2Cl)/C(=C/c2ccc(-c4ccc(Cl)cc4)o2)S3)ccc1Cl | inactive: > 50 µM |

| SMILES | GI50 |
| --- | --- |
| N=C(N)N/N=C\c1c(-c2ccccc2)nc2sccn12 | inactive: 17.4 µM |
| CCCn1c2ccccc2c2ccc3c(c21)C(=O)C=CC3=O | inactive: > 10 µM |
| C#CCNC(=O)NCCCC(NC(C)=O)C(=O)NCc1ccccc1 (configuration not stated) | inactive: > 100 µM |
| O=C(NCCCCCCNC(=O)c1cc(-c2ccccc2)nc2ccccc12)c1cc(-c2ccccc2)nc2ccccc12 | inactive: > 100 µM |
| CN(C)NC(=O)NC12CC3CC(CC(C3)C1)C2 | inactive: > 100 µM |
| NC(CSSCC(N)Cc1ccccc1)Cc1ccccc1 (configuration not stated) | inactive: 74.6 µM |
| O=C1C(Cl)=C(N(C(=O)c2ccccc2)C(=O)c2ccccc2)C(=O)c2ccccc21 | inactive: > 100 µM |
| COc1ccc2c(c1)-c1nc(=O)n(CCCN(C)C)c3ccc([N+](=O)[O-])c(c13)N2 | active: 0.927 µM |
| O=C(CC(C(=O)c1ccsc1)c1cccs1)c1ccccc1 (configuration not stated) | inactive: > 100 µM |
| CC(=O)NC1C(OCc2ccccc2)OC(CO)C(O)C1OCC(=O)NC(C)C(=O)NC(CCC(=O)Nc1ccc2c(c1)CN1C(=O)c3ccccc3C1=N2)C(N)=O (configuration not stated) | inactive: > 100 µM |
| CN1CCC(O)C(CNC23CC4CC(CC(C4)C2)C3)C1 (configuration not stated) | inactive: > 100 µM |
| O=C1Sc2ccccc2/C1=N/Nc1ccccc1[N+](=O)[O-] | inactive: > 100 µM |
| CCOc1ccc(N/C(=C(/C(Cl)=C(/Cl)N(CC)CC)[N+](=O)[O-])n2nnc3ccccc32)cc1 | inactive: > 100 µM |
| CCOC(=O)C1C(c2ccccc2)=C(c2ccccc2)C(c2ccccc2)=C1c1ccccc1 | inactive: 82.2 µM |
| CCOC(=O)C(=O)NCCCN1CCOCC1 | inactive: > 100 µM |
| c1cncc(C2c3[nH]c4ccccc4c3CCN2CCCN2CCCCC2)c1 (configuration not stated) | inactive: > 100 µM |
| Cc1cccc2sc(-c3ccc(O)cc3)nc12 | inactive: 16.5 µM |
| CC[C@@]1(O)C(=O)OCc2c1cc1n(c2=O)Cc2c-1nc1ccccc1c2/C=N/NC(=O)c1ccc(N)cc1 | inactive: 10.4 µM |
| CCc1n[nH]c(=O)n1/N=C/c1ccccc1Cl | inactive: > 100 µM |
| CN1CCN(C)C1c1cccc(C2N(C)CCN2C)c1 | inactive: > 100 µM |
| C#CCCCC(=O)N(C(=O)C[S+]([O-])CC)c1ccccc1 (configuration not stated) | inactive: > 100 µM |
| COc1ccc(C(OCC2OC(n3ccc(NC(=O)c4ccccc4)nc3=O)C(O)C2O)(c2ccccc2)c2ccccc2)cc1 (configuration not stated) | inactive: 29.9 µM |
| C[C@@H]1CCC2C(C)(C)C(/C=C\C=O)C3(C)OC213 (some centres not stated) | inactive: > 100 µM |

| SMILES | GI50 |
| --- | --- |
| COc1cc(NS(C)(=O)=O)ccc1NCc1c[nH]c2ccc3ncccc3c12 | inactive: 21.7 µM |
| CCCCCCC(=O)OC[n+]1ccc2c(C)c3[nH]c4ccccc4c3c(C)c2c1 | active: 0.802 µM |
| CC(C)Cc1c(C#N)c(C#N)c(N)n1Cc1ccccc1 | inactive: > 100 µM |
| C=CC(Br)(CBr)CCC(Br)C(C)(C)Br (configuration not stated) | inactive: 13.9 µM |
| O=C(Nc1ccc(Cl)cc1)c1cc2c(cc1Cl)Sc1nccn1S2(=O)=O | inactive: > 100 µM |
| O=C1OC(c2ccccc2)=N/C1=C\c1cc(Cl)ccc1Cl | inactive: > 100 µM |
| C[C@]12CC[C@H]3[C@@H](CC=C4C[C@@H](O)CC[C@@]43C)[C@@H]1C/C(=C/c1ccccc1)[C@@H]2O | inactive: 22.9 µM |
| CC[C@H]1[C@@H](C)C=C[C@@H](C)N1S(=O)(=O)c1ccc(C)cc1 | inactive: > 100 µM |
| CCOC(=O)N1CCN(c2nc(C)n(-c3ccccc3)c(=S)c2C#N)CC1 | inactive: > 64.1 µM |
| COc1ccc(/C=C\c2cc(OC)c(OC)c(OC)c2)cc1OCC(=O)O | inactive: 11.2 µM |
| O=C(Nc1cc(C(=O)Nc2cccc(S(=O)(=O)O)c2)cc(C(=O)Nc2cccc(S(=O)(=O)O)c2)c1)c1cccc(C(=O)Nc2cc(C(=O)Nc3cccc(S(=O)(=O)O)c3)cc(C(=O)Nc3cccc(S(=O)(=O)O)c3)c2)c1 | inactive: > 100 µM |
| COC(=O)[C@@H]1[C@H](O)[C@H](C)[C@H](O)[C@@](C)(O)/C=C\C=C(\C)C(=O)Nc2c(C)c(OC(C)=O)c3c(c2O)C(=O)C(C)=C2OCOC(=C23)/C(C)=C/[C@@](C)(O)[C@H](O)[C@@H](C)[C@H]1OC(C)=O | inactive: > 100 µM and inactive: 69 µM |
| C[C@@H]1OC2(O)[C@@H]3CCCN3C(=O)N(Cc3ccccc3)N2C1=O (some centres not stated) | inactive: > 100 µM |
| CC(=O)OCC1=C2C(OC(=O)C(C)C)CC3(COC(C)=O)OC3/C=C\C3(C)OC3C2OC1=O (configuration not stated) | inactive: > 100 µM |
| CC(=O)C1C(=O)C(=O)N(c2ccc(Br)cc2)C1=O (configuration not stated) | inactive: > 100 µM |
| C=CCOc1cc2c(cc1C(C)c1ccc(OC)cc1)OCO2 (configuration not stated) | inactive: 2.3 µM |
| O=C(/C=C/c1ccsc1)c1cccs1 | inactive: > 100 µM |
| CC(C)(CN)CN | inactive: > 100 µM |
| c1ccc2c(c1)Nc1c3ccccc3nc3cccc-2c13 | inactive: 1.17 µM |
| COc1cc(/C=C/c2ccc(OC)c(O)c2)cc(OC)c1 | inactive: 13.6 µM |
| O=C(NNCc1ccccc1O)c1ccccc1O | inactive: 10.7 µM |
| COC(=O)c1cc(OC)c(OC)c(OC)c1-c1cc2c(cc1C=O)OCO2 | inactive: > 10 µM |
| O=C1C(c2ccc([N+](=O)[O-])cc2)=[N+]([O-])c2ccccc21 | inactive: 69.5 µM |

“And” between values parts separate entries of the source, which are not always exact repeats. Equal entries are not always repeated.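 Growth conditions: 96-well plates. Treatment: test compound, 48 hours, 5 concentrations. Analysis: linear interpolation between bracketing concentrations; unreached endpoints set to highest concentration. The concentration for 50% growth inhibition is given as GI50.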 The source made the active and inactive calls. Rule as the data show it: active = GI50 up to about 1.1 µM and inactive = higher.
